# Among all 310,000 compounds or so, about 14,000 (4.5%) showed an effect of 50% or more. The effect is printed as a negative number. This is one part of the list.
# Target: human ether-à-go-go-related gene (hERG) potassium channel (human, UniProt Q12809)
# Test: primary screen, population patch clamp on CHO cells stably expressing hERG
# 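Further: peak tail current of the secondary pulse compared with the same well before compound.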
# Chain of human ether-à-go-go-related gene (hERG) potassium channel (Q12809 whole entry, looked up): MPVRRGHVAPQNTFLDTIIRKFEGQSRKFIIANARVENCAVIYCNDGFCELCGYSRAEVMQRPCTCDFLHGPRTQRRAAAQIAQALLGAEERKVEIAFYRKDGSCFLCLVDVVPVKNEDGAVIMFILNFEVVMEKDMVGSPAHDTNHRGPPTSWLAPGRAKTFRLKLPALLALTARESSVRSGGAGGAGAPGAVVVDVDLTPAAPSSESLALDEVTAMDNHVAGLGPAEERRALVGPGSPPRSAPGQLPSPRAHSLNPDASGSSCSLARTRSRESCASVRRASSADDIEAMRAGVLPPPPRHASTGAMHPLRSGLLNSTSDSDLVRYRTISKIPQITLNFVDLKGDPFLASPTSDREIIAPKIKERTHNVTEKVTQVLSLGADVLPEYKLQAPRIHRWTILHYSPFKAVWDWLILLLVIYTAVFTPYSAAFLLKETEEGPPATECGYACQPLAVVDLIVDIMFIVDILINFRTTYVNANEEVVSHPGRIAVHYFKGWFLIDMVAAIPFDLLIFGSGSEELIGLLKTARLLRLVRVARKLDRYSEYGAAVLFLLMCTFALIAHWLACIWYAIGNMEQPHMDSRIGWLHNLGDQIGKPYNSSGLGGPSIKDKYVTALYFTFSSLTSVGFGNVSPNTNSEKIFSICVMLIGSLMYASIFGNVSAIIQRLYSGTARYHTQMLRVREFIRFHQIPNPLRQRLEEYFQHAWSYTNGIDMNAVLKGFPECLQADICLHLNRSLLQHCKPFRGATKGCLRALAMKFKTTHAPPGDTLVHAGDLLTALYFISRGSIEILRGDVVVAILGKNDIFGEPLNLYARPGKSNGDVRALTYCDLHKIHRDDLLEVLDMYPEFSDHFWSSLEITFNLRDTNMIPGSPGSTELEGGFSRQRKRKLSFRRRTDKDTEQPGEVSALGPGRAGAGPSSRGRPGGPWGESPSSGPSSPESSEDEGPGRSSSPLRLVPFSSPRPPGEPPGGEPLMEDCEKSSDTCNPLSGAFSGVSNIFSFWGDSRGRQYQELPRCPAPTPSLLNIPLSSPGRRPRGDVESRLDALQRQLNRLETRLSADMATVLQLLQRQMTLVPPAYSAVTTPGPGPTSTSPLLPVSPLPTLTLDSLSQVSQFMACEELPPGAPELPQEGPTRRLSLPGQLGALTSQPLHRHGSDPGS
row,SMILES,"hERG current change (%, negative = inhibition) at 10uM"
1,CCc1cccc(C)c1NC(=O)C(c1ccccc1)N1CCC1=O (stereo not drawn),15.5%
2,CNC(=O)CC1C(=O)N(c2ccc(F)cc2)C(=S)N1NC(=O)c1ccc(Br)cc1 (stereo not drawn),2.82%
3,O=S(=O)(Cc1cccc(C(F)(F)F)c1)c1ncn[nH]1,17.9%
4,COc1ccc2nc(NC(=O)CCN3C(=S)NC(C)(C)CC3C)sc2c1 (stereo not drawn),-2.94%
5,Cc1cccc(C(=O)NC(=S)Nc2ccc(Cc3ccncc3)cc2)c1,-9.37%
6,COC(=O)C1=C(N)c2c(F)cccc2C1(C#N)c1ccc(F)cc1 (stereo not drawn),-38.2%
7,Cl.c1ccc2c(c1)oc1c(Nc3ccc4c(c3)OCO4)ncnc12,18.5%
8,O=C(NN=C1CCCC1)c1[nH]c2ccc(Cl)cc2c1-c1ccccc1,7.13%
9,CCOC(=O)Cn1nc(C)n(-c2c(C)cccc2C)c1=O,27.7%
10,Cc1ccc(SCCC(=O)NCCSCc2ccccc2C)cc1,9.03%
11,CCOC(=O)c1cnc2cc(-c3ccc(C)cc3)nn2c1-c1ccccc1,5.07%
12,CCNc1ccc(C(=O)OCC)cc1NC(=O)c1cc(S(=O)(=O)N2CCOCC2)ccc1C,-10.9%
13,Cc1ccc(S(=O)(=O)NNC(=O)CC#N)cc1,8.9%
14,COc1cc(C(=O)OCC(=O)Nc2ccc3c(c2)OC(F)(F)O3)ccc1OCc1c(C)noc1C,-0.456%
15,NC(=O)C1CCN(C(=O)CSc2nc3ccccc3s2)CC1,1.43%
16,CCS(=O)(=O)Nc1ccc(C2=NN(C(=S)Nc3ccccc3)C(c3ccco3)C2)cc1 (stereo not drawn),1.29%
17,Cc1nn(Cc2ccc(Cl)c(Cl)c2)c(C)c1NC(=O)c1cc(C2CC2)on1,-28.6%
18,Cc1cccc(C(=O)NCC(=O)Nc2ccncc2)c1,-4.07%
19,NC(=O)c1cc2c(s1)-c1cc(Cl)ccc1SC2,1.66%

row,SMILES,"hERG current change (%, negative = inhibition) at 10uM"
1,O=C(c1ccco1)N1CCN(C(=O)C2CC2)CC1,-11.8%
2,COc1cccc(-c2cc(C(=O)Nc3cccnc3)c3ccccc3n2)c1,-19.9%
3,CSc1nc(C)nc(C2CC2)c1C#N,17%
4,COc1ccc(N2CC(C)Cn3c2nc2c3c(=O)n(Cc3ccc(F)cc3)c(=O)n2C)c(OC)c1 (stereo not drawn),-11.2%
5,CC(C)Cc1ccc(C(=O)NCc2ccc3c(c2)OCO3)o1,17%
6,COc1ccccc1N1CCN(C/C=C/c2ccc(N(C)C)cc2)CC1,-53.9%
7,CCNC(=O)CSc1nnc(-c2cc(-c3ccc(Cl)cc3)nc3ccccc23)o1,-82.3%
8,N#CCOC(=O)/C=C/c1ccc2c(c1)OCO2,7.2%
9,COCCN1CC(C(=O)NCc2ncccc2C)CCC1=O (stereo not drawn),22.6%
10,CCCCC(=O)Nc1ccc(C(=O)NCCN2CCOCC2)cc1,8.09%
11,COc1ccc(CNC(=O)CN(Cc2ccc(C)cc2)S(=O)(=O)c2ccc(Cl)cc2)cc1,-50.9%
12,C=CCn1c(=O)c2c(nc3n2CCCN3CCc2ccccc2)n(C)c1=O,-19.8%
13,COc1ccc(CCn2c(N)c(C(=O)NCc3ccco3)c3nc4ccccc4nc32)cc1,0.65%
14,CN(C)S(=O)(=O)Oc1ccccc1C(=O)Nc1cccc(C(F)(F)F)c1,-22.5%
15,O=S(=O)(c1ccc(Br)s1)N1CCN(c2ccccc2)CC1,2.15%
16,COc1cc(NC(=O)c2cc([N+](=O)[O-])ccc2Br)ccc1NC(=O)c1ccco1,13.2%
17,Cc1ccc(-c2ccc(=O)n(CC(=O)NCC3COCCO3)n2)cc1 (stereo not drawn),23%
18,CCCCn1c(N)c(N2CCOCC2)c(=O)n(CC(=O)NCCc2ccccc2)c1=O,17.6%
19,COc1cc(/C=N/NC(=O)c2c(-c3ccccc3)noc2C)cc(OC)c1OC,-46.5%

row,SMILES,"hERG current change (%, negative = inhibition) at 10uM"
1,COc1cc(/C(C)=N/NC(=O)CSc2nnc(C)s2)ccc1O,3.91%
2,CC(C)c1nnc(NC(=O)CCCCCN2C(=O)C3C4C=CC(C4)C3C2=O)s1 (stereo not drawn),-20.3%
3,CC(=O)Nc1ccc(S(=O)(=O)N(C)CC(=O)OCC(=O)N2CCCC2=O)cc1,-2.45%
4,O=C(CN1C(=O)COc2ccc(S(=O)(=O)N3CCCCC3)cc21)NCc1ccc(Cl)cc1,18.3%
5,Cc1ccc(NC(=O)Nc2ccc3c(c2)nc(C)n3C)cc1,-0.433%
6,O=C(NCc1ccccc1C(F)(F)F)C1CC(c2ccc(C(F)(F)F)cc2)=NO1 (stereo not drawn),2.97%
7,CC(C)C(=O)NC(=S)Nc1ccccc1N1CCN(C(=O)c2ccccc2)CC1,11.6%
8,Cn1ccnc1Sc1ccccc1[N+](=O)[O-],16.3%
9,COc1ccc(S(=O)(=O)Nc2ccccc2C(=O)N2CCOCC2)cc1Br,-1.62%
10,CCOC(=O)c1sc(NC(=O)c2ccncc2)nc1C,-3.04%
11,COc1ccc(NC(=O)C(CC(C)C)NC(=O)C2CCC(C)CC2)cc1 (stereo not drawn),10.1%
12,COc1ccc(CCNC(=O)CSc2ccccn2)cc1,1.38%
13,Cc1nc2c(c3c1[nH]c1ccccc13)C(=O)CC(C)(C)C2,-0.41%
14,CC(C)N(C(=O)CSc1nc(Cc2ccccc2)nc2ccccc12)C(C)C,2.86%
15,CCOc1ccc(C2CC(c3cccc(C)c3)n3ncnc3N2)cc1 (stereo not drawn),-45.5%
16,CC(=O)NC1=NN(C(C)=O)C(C)(CS(=O)(=O)c2ccc(C)c(C)c2)S1 (stereo not drawn),5.82%
17,Cc1ccc(C)c(NC(=O)NCCN2CCCCC2)c1,-15.1%
18,CCOC(=O)C(NC(C)=O)(Nc1cccc(F)c1)C(F)(F)F (stereo not drawn),7.74%
19,Cc1ccc(-c2csc(NC(=O)c3ccccc3Cl)c2C(=O)O)cc1,20.8%

# Source: paper PMC4336329 (PLoS ONE, 2015)
